The values below come from PMC4336329 (PLoS ONE, 2015).

In all, about 310,000 compounds went through this assay and about 2,200 (0.71%) showed an effect of 50% or more. The effect is printed as a negative number. The list shows a part of the results.

Sequence of human ether-à-go-go-related gene (hERG) potassium channel (Q12809 whole entry, looked up): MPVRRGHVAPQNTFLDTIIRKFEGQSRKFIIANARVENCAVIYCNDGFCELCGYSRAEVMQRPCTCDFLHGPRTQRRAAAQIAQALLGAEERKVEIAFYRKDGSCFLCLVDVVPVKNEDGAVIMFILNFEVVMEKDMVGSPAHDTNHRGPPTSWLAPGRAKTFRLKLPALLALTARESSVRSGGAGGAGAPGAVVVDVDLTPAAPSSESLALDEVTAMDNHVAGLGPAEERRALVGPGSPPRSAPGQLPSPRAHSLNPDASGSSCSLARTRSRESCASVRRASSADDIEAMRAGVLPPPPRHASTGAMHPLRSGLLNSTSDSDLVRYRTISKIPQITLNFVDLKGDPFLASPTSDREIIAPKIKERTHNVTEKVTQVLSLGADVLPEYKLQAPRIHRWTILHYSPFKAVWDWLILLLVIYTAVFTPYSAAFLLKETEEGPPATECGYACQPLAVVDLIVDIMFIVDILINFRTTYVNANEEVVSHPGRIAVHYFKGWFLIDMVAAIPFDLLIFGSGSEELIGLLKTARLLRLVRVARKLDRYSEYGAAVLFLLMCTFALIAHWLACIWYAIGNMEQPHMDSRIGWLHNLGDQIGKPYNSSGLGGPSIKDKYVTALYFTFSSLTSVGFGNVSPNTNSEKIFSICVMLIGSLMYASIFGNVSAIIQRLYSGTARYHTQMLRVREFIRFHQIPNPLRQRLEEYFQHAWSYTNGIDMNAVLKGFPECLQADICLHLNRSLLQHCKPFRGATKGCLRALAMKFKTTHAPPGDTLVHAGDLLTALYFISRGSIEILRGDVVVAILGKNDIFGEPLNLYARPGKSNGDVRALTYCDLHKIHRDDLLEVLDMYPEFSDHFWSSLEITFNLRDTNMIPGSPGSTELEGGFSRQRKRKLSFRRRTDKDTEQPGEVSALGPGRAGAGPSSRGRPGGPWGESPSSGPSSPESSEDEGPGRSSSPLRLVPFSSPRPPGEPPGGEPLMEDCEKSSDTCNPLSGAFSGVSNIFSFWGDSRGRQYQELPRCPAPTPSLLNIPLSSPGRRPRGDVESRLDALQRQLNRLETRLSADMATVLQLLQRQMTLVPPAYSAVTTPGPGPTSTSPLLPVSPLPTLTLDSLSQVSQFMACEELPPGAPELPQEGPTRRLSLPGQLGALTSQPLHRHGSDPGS

The assay has as its target human ether-à-go-go-related gene (hERG) potassium channel (human, UniProt Q12809). The assay is described as follows: primary screen, population patch clamp on CHO cells stably expressing hERG.
In the case of `O=C(Nc1ccc2nc(-c3cccs3)[nH]c2c1)c1ccco1`, the “hERG current change (%, negative = inhibition) at 1uM” value is recorded as 8.03%. The figure for `COc1cccc(Nc2nc3ccccc3nc2NS(=O)(=O)c2ccc(NC(C)=O)cc2)c1` is 20.1%. The figure for `O=C(NCc1cccnc1)c1cc(Sc2ccccc2Cl)nc2ccccc12` is 10.4%; for `COc1ccc(OCC(O)CN(CC(O)COc2ccc(OC)cc2)c2cccc(O)c2)cc1` (stereo not shown) it is 11%. The figure for `COc1ccc(C2C(C(N)=O)=C(C)Nc3ncnn32)cc1` (stereo not shown) is -11.2%. As to `CCOC(=O)/C=C/C(=O)OCc1csc(CC(=O)Nc2ccccc2C)n1`, the “hERG current change (%, negative = inhibition) at 1uM” value is 2.93%. As for `COc1ccc(C(=O)Nc2ccc3[nH]ncc3c2)cc1`, the “hERG current change (%, negative = inhibition) at 1uM” value is recorded as 14.7%.

Take `COc1cccc(N(C(=O)c2snc(C(N)=O)c2N)C(C(=O)NCC2CCCO2)c2ccc3ncccc3c2)c1` (stereo not shown): the “hERG current change (%, negative = inhibition) at 1uM” value came to 7.02%. The figure for `Cn1cnnc1SC1c2cccc3cccc(c23)C1NS(=O)(=O)c1ccc(Cl)cc1` (stereo not shown) is 11.3%. In the case of `NC(=O)c1ccc(C(F)(F)F)n(Cc2cccc(Cl)c2)c1=O` it was -0.183%; in that of `CCc1nnc(NC(=O)c2ccc(COc3ccc(C)cc3)o2)s1`, 5.58%. For the compound `Cc1cc(-c2ccccc2)nc(=O)[nH]1`, the “hERG current change (%, negative = inhibition) at 1uM” value is 9.57%. In the case of `COc1ccc(CO/N=C/c2c(C)[nH]c(=O)[nH]c2=O)cc1` it was 9%; in that of `COc1cc2ccccc2cc1C(=O)NC(=S)Nc1ccc(C(=O)O)cc1`, 9.34%. For `CNC(=O)CC(C(=O)O)c1ccc(OCC(C)C)cc1` (stereo not shown), the “hERG current change (%, negative = inhibition) at 1uM” value came to 13.8%. In the case of `Cl.c1ccc(-c2nnc(CN3CCN(C(c4ccccc4)c4ccccc4)CC3)o2)cc1` it was 10.9%; in that of `Cc1cc(C)nc(N(C#N)CCOc2ccccc2)n1`, 7.77%; in that of `CC(C)(C)c1cc[n+](-c2nc([O-])sc2C=O)cc1`, 18.6%. The figure for `COc1cccc(NC(=O)CN2CCN(CC(=O)Nc3ccccc3Cl)CC2)c1` is -21.1%; for `CC1=NOC(=O)/C1=C/c1ccc(O)c(Br)c1` it is 22.1%. The figure for `COc1ccc(N=c2oc3cc(O)ccc3cc2C(=O)NCC2CCCO2)cc1` (stereo not shown) is 9.02%. For `COc1cc(C(=O)NC2CCN(Cc3nnnn3Cc3ccc(F)cc3)CC2)cc(OC)c1OC`, the “hERG current change (%, negative = inhibition) at 1uM” value is given as 3.89%. In the case of `CC1=C(C(=O)Nc2ccc(C(=O)N3CCN(c4ccccc4F)CC3)cc2)SCCO1` it was 13.2%; in that of `CCCCCN(C(=O)COC(=O)COc1c(C)cc(C)cc1C)c1c(N)n(CCCC)c(=O)[nH]c1=O`, 7.56%; in that of `CC(C)C(=O)Nc1ccc(NC(=S)NC(=O)c2cc3ccccc3o2)cc1`, 12.3%. In the case of `COc1cc(CN2CCN(Cc3ccc(C)cc3)C(CCO)C2)cc(OC)c1O` (stereo not shown), the “hERG current change (%, negative = inhibition) at 1uM” value is recorded as -8.42%. As to `COc1ccccc1/C=N\N=C(\N)c1ccccn1`, the “hERG current change (%, negative = inhibition) at 1uM” value is reported as 3.17%. In the case of `CCOc1ccc2c(c1)S/C(=C\c1cccs1)C(=O)N2` it was 10%. `Cc1ccc[n+](C(C)C(=O)Nc2ccc(C)c(C)c2)c1.[Br-]` (stereo not shown): the “hERG current change (%, negative = inhibition) at 1uM” value is listed as 11.9%. The figure for `COc1ccc(C(=O)N2CCN(Cc3ccc4c(c3)OCO4)CC2)cc1[N+](=O)[O-]` is -6.08%.

Turning to `O=C(Cn1nc(Cl)nc1Cl)c1cc2ccccc2oc1=O`, the “hERG current change (%, negative = inhibition) at 1uM” value is reported as -11.8%.

Regarding `CCOc1cc(NC(=S)NCC2CCCO2)c(OCC)cc1NC(=O)c1ccccc1` (stereo not shown), the “hERG current change (%, negative = inhibition) at 1uM” value was -5.53%. The figure for `COc1ccc(C(c2nnnn2CC2CCCO2)N2CCN(c3cccc(C)c3C)CC2)cc1.Cl` (stereo not shown) is 7.59%. The figure for `Cc1ccccc1CN1CCNC(=O)C1CC(=O)N(C)CCC1CCOCC1` (stereo not shown) is 19.3%; for `COc1ccc(CNc2c(C(=O)O)cnc3c2cnn3C)cc1` it is 23%; for `Cc1ccccc1-c1nc(CN2CCC(C(=O)NCc3ccco3)CC2)c(C)o1` it is -34.7%. In the case of `Cc1c(C(=O)N/N=C/c2ccc(N(C)C)cc2)[nH]c2ccc(Cl)cc12` it was 9.53%; in that of `O=C(c1ccc2c(c1)OCO2)N(Cc1ccco1)C1(C(=O)NC2CCCCC2)CCCCC1`, 2.89%. `O=C(NCc1ccc2c(c1)OCO2)C1CC(=O)N(c2ccc(Cl)cc2)C1` (stereo not shown): the “hERG current change (%, negative = inhibition) at 1uM” value is -4.49%. The figure for `CCOC(=O)c1ccc(NC2c3ncccc3C(=O)N2Cc2ccc(F)cc2)cc1` (stereo not shown) is 11.7%; for `c1nc(N2CCC3(CC2)OCCO3)c2[nH]cnc2n1` it is 22.6%; for `COc1ccc(N2CCN(S(=O)(=O)CCNC(=O)COc3cccc(OC)c3)CC2)cc1` it is 17.4%. In the case of `O=C(OCCN1C(=O)c2cccc3c(N4CCOCC4)ccc(c23)C1=O)c1cccc(Cl)c1` it was 9.05%; in that of `O=C(NCCc1ccc(F)cc1)c1ccc([N+](=O)[O-])cc1`, -1.54%; in that of `C#CCOCCOCCOCCNc1nc(N2CCN(C(=O)Cn3cc(CCC[NH+]=C(N)N)nn3)CC2)nc(N2CCN(C(=O)[C@H](C)n3cc(CCC[NH+]=C(N)N)nn3)CC2)n1.[Cl-]`, 11.6%.

For the compound `N#Cc1ccc(Oc2ccc(NC(=O)C3CC=CCC3C(=O)O)cc2)cc1` (stereo not shown), the “hERG current change (%, negative = inhibition) at 1uM” value stood at 13.4%.

With `Cc1ccc(CNC(=O)C2CC2c2ccccc2)cc1` (stereo not shown), the “hERG current change (%, negative = inhibition) at 1uM” value was determined as 14.3%. The figure for `COC(=O)c1c(-c2ccc(Br)cc2)noc1N` is 17.4%; for `O=C(Nc1ccc(Cl)c(Cl)c1)Oc1ccc(NC(=O)c2ccco2)cc1` it is 19.8%; for `COC(=O)CCC(=O)Nc1sc2c(c1C#N)CCCC2` it is 8.13%. In the case of `O=C(c1ccc(=O)oc1)N1CCN(c2ccc(F)cc2)CC1` it was -0.973%; in that of `CC1CN(C(=O)c2cc3cc(Br)ccc3[nH]2)CC(C)O1` (stereo not shown), 7.81%. Consider `N#CCC(=O)N/N=C1\CCCCC1C1CCCCC1` (stereo not shown), for which the “hERG current change (%, negative = inhibition) at 1uM” value was 9.25%. The figure for `Cc1ccc(CC2CC(=O)N(Cc3ccco3)C2=O)cc1` (stereo not shown) is 5.21%. The figure for `O=c1c2ccccc2oc2cc(NCCCn3ccnc3)ccc12` is 0.0608%.
